According to PubChem BioAssay AID624296 (National Center for Advancing Translational Sciences (NCATS), 2012):
Where “and” joins values, the source holds several entries; their conditions need not be identical. Identical values can stand only once. The campaign covered roughly 350,000 compounds. About 9,900 (2.8%) were called active. Inconclusive results, whose numbers are uncertain, are shown with a selection of clear calls. Calls follow the shape of the dose curve; as a rule, active = well fitted activation curve with a large enough effect; inconclusive = small, poorly fitted or top-dose-only effect; inactive = no such curve, though single readings can be large or run the other way. A potency beside an inconclusive call is a rough fit, not a confirmed value.

Experiment: A quantitative high throughput screen for small molecules that induce DNA re-replication in MCF 10a normal breast cells. Also: nearly all actives have a fitted effect of over 50% in size. As to activity, positive = re-replication: % of control where 0% means no effect.
Details: MCF 10A DNA re-replication, Hoechst nuclear intensity, 48 h; activity, positive = re-replication: at 46.1 µM (top of the series)
Potency is read from the fitted curve at half-maximal effect; tags tell the direction and shape of the fitted curve.

SMILES | Potency | activity, positive = re-replication
Clc1ccc(C(c2ccccc2Cl)C(Cl)Cl)cc1 (configuration not stated) | inconclusive: 11.2 µM [activator, partial curve, poor fit] and inconclusive: 11.9 µM [activator, single point] and inconclusive: 5.8 µM [activator, single point] | –
O=c1cc(-c2ccc([N+](=O)[O-])cc2)c2cc3c(cc2[nH]1)OCCO3 | inconclusive: 2.59 µM [activator, full curve, poor fit] | –
CCN1C(=O)c2cccc3c(S(=O)(=O)N(C(=O)c4cccnc4)c4ccc(OC)cc4)ccc1c23 | inconclusive: 29.1 µM [activator, single point] | –
Cc1ccccc1OCC(=O)N(Cc1cccs1)C1CCS(=O)(=O)C1 (configuration not stated) | – | inactive: -178% [at 0.0737 µM]
CC(C)CCN1CCN(Cc2ccc(Sc3nncn3C)o2)CC1CCO (configuration not stated) | inactive | –
COc1cccc(NC(=O)C2CCN(S(=O)(=O)c3ccc4c(c3)OCCO4)CC2)c1 | inconclusive: 0.082 µM [activator, full curve, poor fit] | –
COc1cc(OC)cc(C(=O)NCc2ccc3[nH]c(C)cc3c2)c1 | active: 0.651 µM | –
CCN(CC)S(=O)(=O)c1cccc(NC(=O)CCSc2ccc(Cl)cc2)c1 | inconclusive: 11.6 µM [activator, partial curve, poor fit] | –
CSc1nc(-c2ccc(N(C)C)cc2)c(C#N)c(=O)n1C | active: 11.6 µM | –
COc1ccc(OC)c(CCNC(=O)c2cccc(NC(=O)C3=C(C)OCCS3)c2)c1 | inconclusive: 29.1 µM [activator, single point] | –
Oc1ccccc1C1=NN(c2ccccc2)C(c2ccc(F)cc2)C1 (configuration not stated) | inconclusive: 6.51 µM [activator, single point] | –
CC(OC(=O)c1ccc(Cl)cc1O)C(=O)NCCC1=CCCCC1 (configuration not stated) | inconclusive: 18.4 µM [activator, single point] | –
NC(=O)c1cc([N+](=O)[O-])ccc1NCc1ccccn1 | inconclusive: 0.366 µM [activator, full curve, poor fit] | –
CCN1CCN(S(=O)(=O)c2ccc(OC)cc2)CC1 | inconclusive: 16.4 µM [activator, single point] | –
Cc1ccc(C)c(N2CCN(C(=O)CCc3nc(-c4ccc(F)cc4)no3)CC2)c1 | inconclusive: 29.1 µM [activator, single point] | –
C[C@H]1CN(S(=O)C(C)(C)C)[C@@H](CCO)/C1=C\c1ccccc1 (some centres not stated) | inactive | –
CN(C)c1ccc(C(=C2C=CC(=[N+](C)C)C=C2)c2ccccc2)cc1 | inconclusive: 10.6 µM [activator, partial curve] | –
CCN(c1ccccc1)S(=O)(=O)c1ccc2[nH]c(=O)c(=O)[nH]c2c1 | inconclusive: 23.1 µM [activator, partial curve, poor fit] | –
Cc1ccc(C(=O)c2coc3c2C(=O)C(=O)c2ccccc2-3)cc1 | inactive | –
N#CC1=C(S)N(c2ccccc2)C2(CCCCC2)NC1=O | inconclusive: 18.4 µM [activator, single point] | –
CC(=O)Oc1ccc(C(=O)Nc2cccc(NC(=O)c3ccco3)c2)cc1 | active: 6.51 µM | –
Cc1[nH]c2ccccc2c1CCNC(=O)c1ccc2c(c1[N+](=O)[O-])C(=O)c1ccccc1C2=O | inconclusive: 2.91 µM [activator, full curve] | –
Cc1ccc(NC(=O)Nc2cc(S(C)(=O)=O)ccc2Cl)cc1 | inactive | –

SMILES | Potency | activity, positive = re-replication
CC(=O)Nc1ccc(N(C(=O)c2ccco2)C(C(=O)NC2CCCC2)c2ccc(N(C)C)cc2)cc1 (configuration not stated) | inactive | –
COc1ccc(C2=NOC(Cn3nc(C(=O)NCc4ccccc4OC)cc3-c3ccccc3)C2)cc1 (configuration not stated) | inconclusive: 29.1 µM [activator, partial curve, poor fit] | –
CCc1ccc(/C=N/NC(=O)c2nnn(-c3nonc3N)c2CN2CCc3ccccc32)cc1 | inconclusive: 6.51 µM [activator, partial curve] | –
CCN(CC)S(=O)(=O)c1cccc(NC(=O)/C=C/c2cccc([N+](=O)[O-])c2)c1 | inconclusive: 1.03 µM [activator, full curve, poor fit] | –
Cc1cc(C)cc(NC(=O)C2(c3cccs3)CCOCC2)c1 | inconclusive: 16.4 µM [activator, partial curve, poor fit] | –
CC(=O)Nc1ccc(S(=O)(=O)N2CCN(C(=O)c3ncoc3-c3ccccc3C)CC2)cc1 | inactive | –
CCOC(=O)C(C(=O)Nc1ccc(C)cc1)C1CCCCC1 (configuration not stated) | inactive | –
COc1cccc(-c2nnc(NC(=O)c3cccc(F)c3)o2)c1 | active: 23.1 µM | –
O=C(N/N=C\C=C\c1ccc2c(c1)OCO2)C1COc2ccccc2O1 (configuration not stated) | inconclusive: 25.9 µM [activator, single point] | –
O=S(=O)(NC1c2cccc3cccc(c23)C1Sc1ncccn1)c1ccccc1 (configuration not stated) | inconclusive: 29.1 µM [activator, single point] | –
COc1ccc(CC(=O)Nc2sc(Cc3ccccc3)c(C)c2C(N)=O)cc1 | inconclusive: 29.1 µM [activator, single point] | –
COCCNc1ncnc2c1cnn2Cc1ccccc1Cl | inconclusive: 23.1 µM [activator, single point] | –
O=C(COC(=O)c1c2c(nc3ccccc13)/C(=C\c1cccs1)CCC2)Nc1ccccc1Cl | inconclusive: 29.1 µM [activator, single point] and inconclusive: 9.2 µM [activator, single point] | –
Cc1ccc(NC(=O)CCCSc2nc3ccccc3[nH]2)cc1 | inactive | –
CCN(CC)S(=O)(=O)c1ccc(N2CCOCC2)c(NC(=O)C23CC4CC(CC(Cl)(C4)C2)C3)c1 | inconclusive: 29.1 µM [activator, partial curve, poor fit] | –
Cc1oc(S(=O)(=O)N2CCCCC2)cc1NC(=O)Nc1ccc(Cl)cc1 | inactive | –
Cc1ccc(-n2c(-c3ccco3)nc3nc4ccccc4nc32)cc1 | inconclusive: 31.6 µM [activator, single point] | –
Cc1ccc(S(=O)(=O)N2CCN(C(=O)[C@H](Cc3ccccc3)NC(=O)c3ccco3)CC2)cc1C | inactive | –
O=c1[nH]c(CSc2nnc(COc3ccccc3)n2-c2ccccc2)nc2ccccc12 | inactive | –
CCN1CCN(C(c2cccs2)C(C)NC(=O)c2ccccc2OC)CC1 (configuration not stated) | inactive | –
CCCCCCCCNCCS(=O)(=O)NCCCCCCCC | inactive | –
COC(=O)c1cc(S(=O)(=O)NCCc2sccc2C)c[nH]1 | inactive | –
CCNC(=O)NC(=O)C(C)OC(=O)c1ccc(-n2nc(SC)sc2=S)cc1 (configuration not stated) | inconclusive: 1.84 µM [activator, partial curve, poor fit] | –

SMILES | Potency | activity, positive = re-replication
O=C(Cc1cccc(C(F)(F)F)c1)NCc1ccc(Cl)cc1 | inconclusive: 29.1 µM [activator, single point] | –
N/C(=N\OC(=O)c1ccc(Cl)cc1Cl)c1ccccc1 | inactive | –
CCn1c(C)c(C2=CCN(S(=O)(=O)c3ccc(C)cc3)CC2)c2ccccc21 | inconclusive: 23.1 µM [activator, single point] | –
O=C1c2cnc3nc(SCc4cccc(Cl)c4)nn3c2CC2c3ccccc3CCN12 (configuration not stated) | active: 2.06 µM | –
Cc1ccccc1-n1nnnc1SCC(=O)NCC1(N2CCOCC2)CCCCC1 | inactive | –
CC1CCCN(c2ccc(C(=O)OCC(=O)N3c4ccccc4Sc4ccccc43)cc2[N+](=O)[O-])C1 (configuration not stated) | inconclusive: 2.06 µM [activator, full curve] | –
CCn1cc(C(=O)O)c(=O)c2cc(F)c(N/N=C/c3ccccc3[N+](=O)[O-])cc21 | inactive | –
CC(Oc1cccc(Cl)c1)C(=O)Nc1ccccc1N1CCCCC1 (configuration not stated) | inconclusive: 18.4 µM [activator, single point] | –
CC(Sc1ncnc2sc(-c3ccccc3)cc12)C(=O)NCC1CCCO1 (configuration not stated) | inconclusive: 4.61 µM [activator, single point] | –
NC(=S)Nc1ccc2c(c1)OCO2 | inconclusive: 9.2 µM [activator, partial curve] | –
CCN(CC)S(=O)(=O)c1ccc(C(C)NC(=O)C2CCCN2C(=O)c2cccs2)cc1 (configuration not stated) | inconclusive: 6.51 µM [activator, partial curve, poor fit] | –
O=S(=O)(Nc1ccc2nc(N3CCOCC3)sc2c1)c1ccccc1 | inconclusive: 0.461 µM [activator, partial curve, poor fit] | –
Cc1ccccc1C(=O)c1cccn1CC(=O)NCc1ccccc1Cl | inconclusive: 29.1 µM [activator, single point] | –
O=C(COC(=O)CNC(=O)c1ccccc1F)NC1CC1 | inactive | –
Cc1ccc(SCc2nc(N)nc(Nc3ccccc3C)n2)c(C)c1 | inconclusive: 18.4 µM [activator, single point] | –
COC(=O)C1=C(C)OC(N)=C(C#N)C1c1c(C)nn(C)c1C (configuration not stated) | inactive | –
Cn1c2ccc(Cl)cc2c2nc3ccccc3nc21 | inconclusive: 25.9 µM [activator, single point] | –
COc1ccc(N(CC(=O)Nc2cccc(N(C)S(C)(=O)=O)c2)S(=O)(=O)c2ccccc2)cc1Cl | inactive | –
O=C(COC(=O)c1ccc([N+](=O)[O-])o1)NC1CCCCC1 | inactive | –
N#Cc1c(N)n(-c2cccc(O)c2)c2nc3ccccc3nc12 | inconclusive: 20.6 µM [activator, single point] | –
COc1cc(/C=C(\C#N)c2nc3ccccc3n2C)cc(OC)c1O | inconclusive: 29.1 µM [activator, single point] | –
